# PubChem BioAssay AID588342 (National Center for Advancing Translational Sciences (NCATS), 2011)
# The whole screen tested about 360,000 compounds, of which about 25,000 (6.9%) were called active. Inconclusive results, whose numbers are uncertain, are shown with a selection of clear calls. The call rests on the fitted dose curve; in most records, active means well fitted inhibition curve with a large enough effect; inconclusive means small, poorly fitted or top-dose-only effect; inactive means flat fitted curve, though single readings scatter. Potencies of inconclusive entries are doubtful fits and often do not repeat.
# Target: Luciferin 4-monooxygenase (Photinus pyralis) (UniProt P08659)
# Experiment: qHTS profiling assay for firefly luciferase inhibitor/activator using purifed enzyme and Km concentrations of substrates (counterscreen for miR-21 project); further: nearly all actives have a fitted effect of over 55% in size
# Conditions: purified FLuc, luminescence inhibition; series mostly up to 57.5 µM
# In short: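 Purified P. pyralis luciferase, 10 nM final, with Km-level 10 uM D-luciferin and 10 uM ATP in 50 mM Tris acetate pH 7.5, 10 mM Mg acetate, 0.01% Tween-20, 0.05% BSA; 6-point qHTS titration about 60 µM downward; luminescence read.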
# Potency means the concentration at half of the fitted maximal effect; tags describe the fitted curve by direction and shape.
# Chain of UniProt P08659 (P08659 whole entry, looked up): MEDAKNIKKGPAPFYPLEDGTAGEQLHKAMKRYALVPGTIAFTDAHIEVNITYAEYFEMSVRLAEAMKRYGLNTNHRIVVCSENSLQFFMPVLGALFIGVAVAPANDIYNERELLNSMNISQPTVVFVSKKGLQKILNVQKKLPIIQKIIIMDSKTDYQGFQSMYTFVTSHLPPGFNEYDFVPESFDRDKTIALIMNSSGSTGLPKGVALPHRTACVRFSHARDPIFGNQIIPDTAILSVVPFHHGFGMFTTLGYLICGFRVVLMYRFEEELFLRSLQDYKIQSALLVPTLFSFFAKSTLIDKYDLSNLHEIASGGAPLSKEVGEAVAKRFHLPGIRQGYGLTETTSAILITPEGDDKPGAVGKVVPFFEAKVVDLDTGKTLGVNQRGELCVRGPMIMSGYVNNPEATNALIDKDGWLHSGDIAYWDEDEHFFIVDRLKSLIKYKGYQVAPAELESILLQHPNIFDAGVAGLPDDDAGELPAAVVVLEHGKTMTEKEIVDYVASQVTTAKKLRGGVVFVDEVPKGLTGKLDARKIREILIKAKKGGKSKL
row,SMILES,Potency
1,Oc1ccc(-c2nnc(-c3ccc(O)cc3)nn2)cc1,active: 2.69 µM
2,O=c1c2c3c(sc2nc(NCCO)n1-c1ccccc1)CCCC3,"inconclusive: 30.1 µM [inhibitor, partial curve, poor fit]"
3,Oc1ccc(Br)cc1C=Nc1ccc(Cl)cc1,"inconclusive: 37.9 µM [inhibitor, single point]"
4,O=C(c1cc(-c2ccc(Br)cc2)nc2ccccc12)N1CCC1,active: 16.9 µM
5,O=C(NCCCCNC(=O)c1cccs1)c1cccs1,inactive
6,CCOC(=O)Cc1csc(NC(=O)CCc2ccccc2)n1,"inconclusive: 37.9 µM [inhibitor, partial curve, poor fit]"
7,COc1ccc(CC(=O)NCc2ccc3c(c2)CCN3C(=O)c2ccc(C)cc2)cc1OC,"inconclusive: 23.9 µM [inhibitor, partial curve]"
8,COc1ccc(CCn2c(N)c(C(=O)NCc3ccco3)c3nc4ccccc4nc32)cc1,inactive
9,CCCC(=O)Nc1nn(C)c2nc3cc(C)ccc3cc12,inactive
10,Cc1ccc(-n2nnc3c(SCC(=O)NCc4ccco4)ncnc32)cc1,active: 13.5 µM
11,Cc1cccc(OCc2nc(-c3nonc3N)no2)c1C,"inconclusive: 8.49 µM [inhibitor, partial curve, poor fit]"
12,Nc1ccc2c(c1)sc1ccccc12,"inconclusive: 30.1 µM [inhibitor, single point]"
13,COc1ccc(-c2csc(NC(=O)C3CCCO3)n2)cc1 (configuration not stated),active: 21.3 µM
14,CN(C)c1ccc(NC(=O)c2ccc3c(c2)nnn3C)cc1,"inconclusive: 23.9 µM [inhibitor, single point]"
15,Cc1c(Cc2ccc3c(c2)OCO3)sc(NC(=O)C2CC2)c1C(N)=O,"inconclusive: 37.9 µM [inhibitor, single point]"
16,O=C(N/N=C/c1c(O)ccc2ccccc12)c1ccc(CO)nc1,"inconclusive: 33.8 µM [inhibitor, single point]"
17,Cc1cc(C)c2oc(-c3cccc(NC(=O)c4ccco4)c3)nc2c1,active: 2.69 µM
18,Cc1ccc(S(=O)(=O)N(C)C)cc1NC(=O)C(C)OC(=O)c1ccc2c(c1)OCCO2 (configuration not stated),"inconclusive: 37.9 µM [inhibitor, partial curve, poor fit]"
19,Cc1cc2c(c3oc(=O)c4ccccc4c13)CN(Cc1ccc(F)cc1)CO2,inactive
20,CC1(C)CC(=O)C=C(Nc2ccc(Br)cc2F)C1,inactive
21,Cc1cc(C)c2nc(N3CCC(C(=O)NCCCN4CC(C)CC(C)C4)CC3)sc2c1 (configuration not stated),"inconclusive: 37.9 µM [inhibitor, single point]"
22,O=C(Nc1cccc(Cl)c1)Nc1ccccc1OCc1cc(=O)n2ccccc2n1,"inconclusive: 1.69 µM [inhibitor, full curve]"
23,Cc1cccc(OCC(=O)Nc2ccc3nc(C)sc3c2)c1,"inconclusive: 23.9 µM [inhibitor, partial curve, poor fit]"
24,Cc1nc2c(C(=O)N(C)Cc3ccccc3)c[nH]n2c(=O)c1Cc1ccc(Cl)cc1,"inconclusive: 12 µM [inhibitor, partial curve]"

row,SMILES,Potency
1,O=C(NCC(c1ccccc1)c1ccccc1)c1nn(-c2ccccc2Cl)nc1CO,inactive
2,CCc1ccc(S(=O)(=O)Nc2ccc(-c3ccc(N4CCCCCC4)nn3)cc2)cc1,"inconclusive: 6.01 µM [inhibitor, partial curve, poor fit]"
3,O=C(NCc1ccccc1)c1nc(-c2cccs2)no1,"inconclusive: 30.1 µM [inhibitor, partial curve, poor fit]"
4,COc1ccc(OC)c(C(O)c2coc3ccc(O)c(CN(C)C)c23)c1 (configuration not stated),"inconclusive: 6.75 µM [inhibitor, partial curve, poor fit]"
5,Nc1ccc(C(=O)Oc2ccc([N+](=O)[O-])cc2)cc1,active: 3.38 µM
6,Clc1ccc2c(N/N=C/c3ccc(Br)cc3)ccnc2c1,inactive
7,CC(=O)N1CCc2cc(S(=O)(=O)CCC(=O)NCc3ccc(F)cc3)ccc21,inactive
8,Cc1ccc(OCC(=O)NCCCNC(=O)c2ccco2)cc1,inactive
9,CNc1ccc(Br)cc(C(=O)/C=C/c2cc(OC)ccc2OC)c1=O,"inconclusive: 16.9 µM [inhibitor, partial curve, poor fit]"
10,CCS(=O)(=O)N1Cc2ccccc2CC1C(=O)Nc1cccc(OC)c1 (configuration not stated),"inconclusive: 23.9 µM [inhibitor, partial curve]"
11,COc1cc(/C=C/C(=O)Nc2ccc3[nH]c(=O)[nH]c3c2)cc(OC)c1OC,"inconclusive: 21.3 µM [inhibitor, partial curve, poor fit]"
12,CCc1c(C)nc2cc(-c3cccs3)[nH]n2c1=O,active: 16.9 µM
13,COC(=O)c1sccc1NC(=S)Nc1ccc(C)cc1,"inconclusive: 21.3 µM [inhibitor, partial curve, poor fit]"
14,COc1cccc(CNC(=O)c2cc(-c3cccc(OC)c3)n[nH]2)c1,"inconclusive: 26.9 µM [inhibitor, partial curve]"
15,COc1ccc(NC(=O)N/C=C/c2ccccc2)cc1,"inconclusive: 2.69 µM [inhibitor, full curve]"
16,O=C(O)c1cccc(Nc2ccc([N+](=O)[O-])cn2)c1,"inconclusive: 23.9 µM [inhibitor, single point]"
17,S=C(Nc1cccc(Br)c1)N1CCn2cccc2C1c1cccnc1 (configuration not stated),inactive
18,O=C1NN(c2ccccc2)C(=O)/C1=C\c1coc2ccc(O)cc2c1=O,"inconclusive: 37.9 µM [inhibitor, single point]"
19,COc1ccccc1CNC(=O)c1ccc2ccccc2n1,"inconclusive: 23.9 µM [inhibitor, partial curve, poor fit]"
20,COc1ccc(NC(=O)CSc2oc(-c3cccs3)nc2S(=O)(=O)c2ccc(Br)cc2)c(OC)c1,inactive
21,CCCCN1C(=O)c2ccc(C(=O)Nc3cccc(C)c3C)cc2C1=O,inactive
22,Cc1occc1C(=O)N/N=C/c1ccc2c(c1)OCO2,active: 3.79 µM
23,CCN(CC)CCN(C(=O)c1ccc(CN2CCCCC2)o1)C(C(=O)NC1CCCCC1)c1ccc(F)cc1 (configuration not stated),inactive
24,COc1ccccc1Nc1nc(Cl)nc(NC(C)(C)C)n1,"inconclusive: 30.1 µM [inhibitor, single point]"

row,SMILES,Potency
1,COc1ccc(NN=Nc2ccc([N+](=O)[O-])cc2)cc1,active: 2.39 µM
2,COc1ccc(NC(=O)c2ccccc2NC(=O)C2CCCO2)cc1 (configuration not stated),inactive
3,Cc1ccccc1/C=C1\OC(=O)c2ccccc21,"inconclusive: 8.49 µM [inhibitor, partial curve]"
4,COc1ccccc1-c1cc(C(=O)NCc2ccc(F)cc2)no1,"inconclusive: 23.9 µM [inhibitor, single point]"
5,CCOC(=O)Cc1csc(NC(=O)/C=C/c2cccc(Br)c2)n1,"inconclusive: 5.36 µM [inhibitor, full curve]"
6,c1ccc2c(c1)ccc1nnc(-c3ccc4c(c3)OCO4)n12,"inconclusive: 19 µM [inhibitor, single point]"
7,CCOC(=O)c1ccc(NC(=O)c2cn(-c3ccccc3)nc2-c2ccc(Br)cc2)cc1,inactive
8,C=CCOc1ccc(/C=C/C(=O)N2CCCN(S(=O)(=O)c3c(C)noc3C)CC2)cc1,"inconclusive: 23.9 µM [inhibitor, single point]"
9,C=CCOc1ccc(/C(O)=C2\C(=O)C(=O)N(CCN(C)C)C2c2cccs2)cc1 (configuration not stated),"inconclusive: 21.3 µM [inhibitor, single point]"
10,C/C=C/C=C\C(=O)Nc1cccc(C2=NOC3(C2)C[C@@H](C(N)=O)N(C(=O)c2cc([N+](=O)[O-])cc([N+](=O)[O-])c2)C3)c1 (some centres not stated),active: 3.01 µM
11,Cc1ccccc1NC(=O)/C=C/c1cccc(C(F)(F)F)c1,"inconclusive: 23.9 µM [inhibitor, partial curve]"
12,CN(C)c1oc(-c2ccc(OCc3ccccc3)cc2)nc1C#N,"inconclusive: 13.5 µM [inhibitor, partial curve]"
13,O=C(NCCSc1ccccn1)c1ccc(Cl)cc1Cl,"inconclusive: 2.69 µM [inhibitor, partial curve]"
14,CCOC(=O)c1c(C)[nH]c(C)c1C(=O)CSc1nc2ccccc2c(=O)n1-c1ccccc1C,"inconclusive: 37.9 µM [inhibitor, single point]"
15,FC(F)(F)c1ccccc1N/N=C/c1cccnc1,"inconclusive: 21.3 µM [inhibitor, single point]"
16,CCC1CCCCN1C(=O)COC(=O)c1n[nH]c2ccccc12 (configuration not stated),"inconclusive: 33.8 µM [inhibitor, partial curve, poor fit]"
17,CCC(=O)N1CCc2cc(S(=O)(=O)CCC(=O)Nc3ccc(Cl)c(C(F)(F)F)c3)ccc21,inactive
18,Clc1ccc(CNc2ccc3nnc(-c4ccccc4)n3n2)cc1,"inconclusive: 21.3 µM [inhibitor, partial curve, poor fit]"
19,Cc1ccc(-c2cc(C(F)(F)F)n3nc(-c4ccc(Cl)cc4)cc3n2)cc1,inactive
20,COc1cccc(OC)c1C(=O)Nc1nnc(C)s1,inactive
21,CS(=O)(=O)Cc1ccc(C(=O)NC2CCSc3ccccc32)cc1 (configuration not stated),inactive
22,CCOc1ccc(N(CC(=O)NCc2ccccc2C)S(C)(=O)=O)cc1,active: 13.5 µM
23,O=C(Nc1ccc(N2CCOCC2)cc1)c1cccc(-n2cnnc2)c1,"inconclusive: 26.9 µM [inhibitor, partial curve, poor fit]"
24,C=CCNc1nc(-c2ccc(O)c(C(N)=O)c2)cs1,"inconclusive: 26.9 µM [inhibitor, single point]"
